{"source": "the antibiotic and cytotoxicity screens of Wong et al. (2023)", "note": "The other results are listed elsewhere or left out.", "data": [{"system": "HSkMC (human skeletal muscle cells)", "assay": "cytotoxicity call (relative viability < 0.9)", "settings": "10 µM", "values": [{"molecule": "COc1ccc(CN(C)C[C@@H]2OCCCC[C@H](C)Oc3ccc(NC(=O)Nc4ccc(OC)cc4)cc3C(=O)N([C@H](C)CO)C[C@@H]2C)cc1", "cytotoxicity call": "inactive"}, {"molecule": "C[C@H]1CN([C@@H](C)CO)C(=O)Cc2cc(NC(=O)Nc3cccc4ccccc34)ccc2O[C@H]1CN(C)Cc1ccc2c(c1)OCO2", "cytotoxicity call": "inactive"}, {"molecule": "C[C@H](CO)N1C[C@H](C)[C@H](CN(C)Cc2ccc(Cl)c(Cl)c2)Oc2ccc(NS(=O)(=O)c3ccccc3)cc2CC1=O", "cytotoxicity call": "inactive"}, {"molecule": "C[C@H](CO)N1C[C@H](C)[C@H](CN(C)Cc2ccc(C(F)(F)F)cc2)Oc2ccc(NC(=O)C3CCCCC3)cc2CC1=O", "cytotoxicity call": "inactive"}, {"molecule": "c1csc(Cn2cccc2)c1", "cytotoxicity call": "inactive"}, {"molecule": "C=CCOC(=O)[C@H]1[C@@H]2C(=O)O[C@@H](c3ccccc3)[C@@H](c3ccccc3)N2[C@@H](c2ccc(OCCOC(=O)[C@H]3C[C@H]4C(=O)N[C@@H](CCCC[N+](C)(C)C)C(=O)N4[C@H]3c3ccc(O)cc3)cc2)[C@]12C(=O)Nc1ccc(I)cc12", "cytotoxicity call": "inactive"}, {"molecule": "C[C@@H]1CCCCO[C@H](CN(C)C(=O)C2CCCCC2)[C@@H](C)CN([C@H](C)CO)C(=O)c2cc(NC(=O)NC3CCCCC3)ccc2O1", "cytotoxicity call": "inactive"}, {"molecule": "C[C@@H]1CCCCO[C@@H](CN(C)C(=O)Cc2ccccc2)[C@@H](C)CN([C@@H](C)CO)C(=O)c2cc(NS(=O)(=O)c3ccc(Cl)cc3)ccc2O1", "cytotoxicity call": "inactive"}, {"molecule": "CN1CCN(C(=O)C[C@H]2CC[C@H]3[C@@H](COC[C@H](O)CN3Cc3ccc(Oc4ccccc4)cc3)O2)CC1", "cytotoxicity call": "inactive"}, {"molecule": "C[C@H]1CCCCO[C@@H](CN(C)Cc2ccc(C(F)(F)F)cc2)[C@@H](C)CN([C@@H](C)CO)C(=O)c2cc(NS(C)(=O)=O)ccc2O1", "cytotoxicity call": "inactive"}]}, {"system": "S. aureus RN4220", "assay": "growth inhibition call (relative growth <= 0.2)", "settings": "50 µM", "values": [{"molecule": "Cc1noc(C)c1S(=O)(=O)Nc1ccc2c(c1)C(=O)N([C@H](C)CO)C[C@H](C)[C@@H](CN(C)Cc1ccccc1)OCCCC[C@@H](C)O2", "growth inhibition call": "inactive"}, {"molecule": "C=C(C(=O)O)[C@@H](CCCCCCOC(=O)C(=O)OCCCCCC[C@@H](C(=C)C(=O)O)C(=O)O)C(=O)O", "growth inhibition call": "inactive"}, {"molecule": "C[C@H]1CCCCO[C@H](CN(C)C(=O)Nc2ccc(C(F)(F)F)cc2)[C@@H](C)CN([C@@H](C)CO)C(=O)c2cc(N(C)C)ccc2O1", "growth inhibition call": "inactive"}, {"molecule": "O=C(C[C@@H]1C[C@H]2c3cc(NC(=O)Nc4ccccc4F)ccc3O[C@H]2[C@H](CO)O1)NCc1ccc(Oc2ccccc2)cc1", "growth inhibition call": "inactive"}, {"molecule": "COc1ccc(S(=O)(=O)N(C)C[C@@H]2Oc3ccc(NS(=O)(=O)c4c(C)noc4C)cc3CC(=O)N([C@@H](C)CO)C[C@H]2C)cc1", "growth inhibition call": "inactive"}, {"molecule": "Cc1noc(C)c1S(=O)(=O)Nc1ccc2c(c1)CC(=O)N([C@H](C)CO)C[C@H](C)[C@H](CN(C)Cc1ccncc1)O2", "growth inhibition call": "inactive"}, {"molecule": "COc1cc2c(NC3CCN(C)CC3)nc(N3CCCN(C)CC3)nc2cc1OCCOCCN(C)C", "growth inhibition call": "inactive"}, {"molecule": "CC(C)NC(=O)Nc1ccc2c(c1)CC(=O)N([C@H](C)CO)C[C@H](C)[C@@H](CN(C)S(=O)(=O)c1cn(C)cn1)O2", "growth inhibition call": "inactive"}, {"molecule": "O=C1C[C@@](C(=O)NCc2ccccc2)(c2ccc([N+](=O)[O-])cc2)[C@@H](c2ccc(CO)cc2)N1CC12CC3CC(CC(C3)C1)C2", "growth inhibition call": "inactive"}, {"molecule": "CC1(C)NC(=O)N(c2ccc([N+](=O)[O-])c(C(F)(F)F)c2)C1=O", "growth inhibition call": "inactive"}, {"molecule": "C[C@H]1CCCCO[C@@H](CN(C)Cc2ccc3c(c2)OCO3)[C@@H](C)CN([C@@H](C)CO)C(=O)c2cc(NC(=O)Nc3cccc4ccccc34)ccc2O1", "growth inhibition call": "inactive"}, {"molecule": "C[C@H](CO)N1C[C@H](C)[C@@H](CN(C)Cc2ccncc2)OCCCC[C@H](C)Oc2ccc(NC(=O)NC3CCCCC3)cc2C1=O", "growth inhibition call": "inactive"}, {"molecule": "Cc1ccc(S(=O)(=O)N(C)C[C@H]2OCCCC[C@H](C)Oc3ccc(NC(=O)Nc4ccc(F)cc4)cc3C(=O)N([C@@H](C)CO)C[C@H]2C)cc1", "growth inhibition call": "inactive"}, {"molecule": "C[C@@H]1CN([C@@H](C)CO)C(=O)c2cccc(NC(=O)Nc3ccc(C(F)(F)F)cc3)c2O[C@H]1CN(C)Cc1ccc(-c2ccccc2)cc1", "growth inhibition call": "inactive"}, {"molecule": "CN(C)C(=O)[C@H]1[C@H](CO)[C@H]2Cn3c(ccc(C4=CCCC4)c3=O)[C@@H]1N2S(=O)(=O)c1cn(C)cn1", "growth inhibition call": "inactive"}, {"molecule": "COc1ccc(NC(=O)N(C)C[C@H]2Oc3ccc(NC(=O)CCCCCC(=O)Nc4ccccc4N)cc3C(=O)N([C@@H](C)CO)C[C@H]2C)cc1", "growth inhibition call": "inactive"}, {"molecule": "C[C@@H]1CN([C@@H](C)CO)C(=O)c2cc(NS(=O)(=O)c3cn(C)cn3)ccc2O[C@@H](C)CCCCO[C@H]1CN(C)S(=O)(=O)c1cccs1", "growth inhibition call": "inactive"}, {"molecule": "Cc1ccnc(-n2c(C)ccc2C)c1", "growth inhibition call": "inactive"}, {"molecule": "C[C@H]1CCCCO[C@H](CN(C)C(=O)C2CCCCC2)[C@@H](C)CN([C@@H](C)CO)C(=O)c2cc(NC(=O)Nc3ccccc3)ccc2O1", "growth inhibition call": "inactive"}, {"molecule": "O=C(CCc1cn(-c2ccc(C[C@H]3C(=O)O[C@@H](Cc4ccccc4)[C@H]4[C@@H]5C=CCCC=C5CN43)cc2)nn1)NO", "growth inhibition call": "inactive"}, {"molecule": "CNC(=O)C[C@@H]1CC[C@H]2[C@@H](COC[C@H](O)CN2C(=O)c2ccc3c(c2)OCO3)O1", "growth inhibition call": "inactive"}, {"molecule": "Nc1nc(Cl)nc2c1ncn2[C@@H]1O[C@H](CO)[C@@H](O)[C@H]1O", "growth inhibition call": "inactive"}, {"molecule": "C[C@@H]1CN([C@@H](C)CO)C(=O)CCCn2nncc2CO[C@H]1CN(C)C(=O)Nc1ccc2c(c1)OCCO2", "growth inhibition call": "inactive"}, {"molecule": "COc1ccc(S(=O)(=O)Nc2cccc3c2O[C@@H](CN(C)Cc2ccc(Cl)c(Cl)c2)[C@H](C)CN([C@@H](C)CO)C3=O)cc1", "growth inhibition call": "inactive"}, {"molecule": "Cc1ccc(O)c(C(C)(C)C)c1", "growth inhibition call": "inactive"}, {"molecule": "Cc1ccc(S(=O)(=O)Nc2ccc3c(c2)C(=O)N([C@@H](C)CO)C[C@@H](C)[C@H](CN(C)C(=O)c2ccccc2)OCCCC[C@H](C)O3)cc1", "growth inhibition call": "inactive"}, {"molecule": "CC12CCC3c4ccc(O)cc4CCC3C1CC(O)C2O", "note": "(stereo not given)", "growth inhibition call": "inactive"}, {"molecule": "C[C@H](CO)N1C[C@H](C)[C@@H](CN(C)Cc2ccc3c(c2)OCO3)Oc2ccc(NC(=O)Nc3cccc4ccccc34)cc2CC1=O", "growth inhibition call": "inactive"}, {"molecule": "COCCNC(=O)C[C@@H]1C[C@H]2c3cc(NC(=O)COC)ccc3O[C@H]2[C@@H](CO)O1", "growth inhibition call": "inactive"}, {"molecule": "C[C@@H]1CN([C@H](C)CO)C(=O)Cc2cc(NC(=O)C3CCCCC3)ccc2O[C@@H]1CN(C)Cc1ccc(Cl)c(Cl)c1", "growth inhibition call": "inactive"}, {"molecule": "COc1ccc(CN(C)C[C@@H]2OCCCC[C@H](C)Oc3ccc(NC(=O)Nc4ccc(OC)cc4)cc3C(=O)N([C@H](C)CO)C[C@@H]2C)cc1", "growth inhibition call": "inactive"}, {"molecule": "C[C@H]1CN([C@@H](C)CO)C(=O)Cc2cc(NC(=O)Nc3cccc4ccccc34)ccc2O[C@H]1CN(C)Cc1ccc2c(c1)OCO2", "growth inhibition call": "inactive"}, {"molecule": "C[C@H](CO)N1C[C@H](C)[C@H](CN(C)Cc2ccc(Cl)c(Cl)c2)Oc2ccc(NS(=O)(=O)c3ccccc3)cc2CC1=O", "growth inhibition call": "inactive"}, {"molecule": "C[C@H](CO)N1C[C@H](C)[C@H](CN(C)Cc2ccc(C(F)(F)F)cc2)Oc2ccc(NC(=O)C3CCCCC3)cc2CC1=O", "growth inhibition call": "inactive"}, {"molecule": "c1csc(Cn2cccc2)c1", "growth inhibition call": "inactive"}, {"molecule": "C=CCOC(=O)[C@H]1[C@@H]2C(=O)O[C@@H](c3ccccc3)[C@@H](c3ccccc3)N2[C@@H](c2ccc(OCCOC(=O)[C@H]3C[C@H]4C(=O)N[C@@H](CCCC[N+](C)(C)C)C(=O)N4[C@H]3c3ccc(O)cc3)cc2)[C@]12C(=O)Nc1ccc(I)cc12", "growth inhibition call": "inactive"}, {"molecule": "C[C@@H]1CCCCO[C@H](CN(C)C(=O)C2CCCCC2)[C@@H](C)CN([C@H](C)CO)C(=O)c2cc(NC(=O)NC3CCCCC3)ccc2O1", "growth inhibition call": "inactive"}, {"molecule": "C[C@@H]1CCCCO[C@@H](CN(C)C(=O)Cc2ccccc2)[C@@H](C)CN([C@@H](C)CO)C(=O)c2cc(NS(=O)(=O)c3ccc(Cl)cc3)ccc2O1", "growth inhibition call": "inactive"}, {"molecule": "CN1CCN(C(=O)C[C@H]2CC[C@H]3[C@@H](COC[C@H](O)CN3Cc3ccc(Oc4ccccc4)cc3)O2)CC1", "growth inhibition call": "inactive"}, {"molecule": "C[C@H]1CCCCO[C@@H](CN(C)Cc2ccc(C(F)(F)F)cc2)[C@@H](C)CN([C@@H](C)CO)C(=O)c2cc(NS(C)(=O)=O)ccc2O1", "growth inhibition call": "inactive"}]}]}
